Results reported in patent publication US20260209325A1, “SELECTIVE AND POTENT INHIBITORY ANTIBODIES OF MYOSTATIN ACTIVATION” (SCHOLAR ROCK, INC., priority 2022, published 2026).

Legend:
human pro-myostatin = human pro-myostatin (Homo sapiens, UniProt O14793); assay: Biacore 8k SPR binding affinity, human pro-myostatin
From the text: (§1) The Biacore™ 8k SPR system was utilized to evaluate the binding affinity of myostatin antibodies to biotinylated human, murine, and cyno pro-myostatin. Biotin CAPture kit and sensor chips (Cytiva) were utilized in these experiments to immobilize the various antigens, followed by flowing a range of concentrations of each of the test antibodies.

murine pro-myostatin = murine pro-myostatin (Mus musculus, UniProt O08689); assay: Biacore 8k SPR binding affinity, murine pro-myostatin
From the text: as §1

cyno pro-myostatin = cyno pro-myostatin (Macaca fascicularis, UniProt Q95J86); assay: Biacore 8k SPR binding affinity, cyno pro-myostatin; parameters: species or system cynomolgus monkey
From the text: as §1

[1] = dexamethasone-induced muscle atrophy mouse model; format: in vivo; conditions: dexamethasone treated mice, antibody 3 mg/kg/day; FIG. 6A, 9A
From the text: To evaluate in vivo efficacy of the novel myostatin-selective inhibitors disclosed herein, the ability of the antibodies to preserve lean muscle mass was examined in a dexamethasone-induced atrophy mouse model. An excess of glucocorticoids directly stimulates myostatin production via interactions with a glucocorticoid response element in the myostatin promoter, thus inducing loss of muscle mass. As shown herein, antibodies of the disclosure prevented glucocorticoid-induced muscle atrophy.
C57BL6 male mice (n=8) at 13-14 weeks of age were given normal drinking water or water containing dexamethasone at a concentration of 2.5 mg/kg (17.5 grams dexamethasone per liter of drinking water) to induce atrophy. […] Body weight was measured daily. Body composition was measured by qNMR to determine lean mass pre-dosing, at day 7, and at day 14. After 14 days of dexamethasone exposure, the animals were terminated, and body weight and gastrocnemius weight were measured. […]
C57BL6 male mice (n=8) at 13-14 weeks of age were given normal drinking water or water containing dexamethasone at a concentration of 2.5 mg/kg to induce atrophy. […] Muscle mass at days −1, 6 and 13 was measured using qNMR. At the end of the study (day 14), serum from each animal was collected and changes in body weight, body composition (qNMR), left and right gastrocnemius weight, and left and right quadriceps weight were measured. […]

| Ka (human pro-myostatin) | Kd (1/s) (human pro-myostatin) | Ka (murine pro-myostatin) | Kd (1/s) (murine pro-myostatin) | Ka (cyno pro-myostatin) | Kd (1/s) (cyno pro-myostatin) | Molecule | maintenance of body weight (percent change from baseline) [1] |
| --- | --- | --- | --- | --- | --- | --- | --- |
| 1.27e+06 M⁻¹ s⁻¹ | 0.000463 s⁻¹ | 914000 M⁻¹ s⁻¹ | 0.000655 s⁻¹ | 905000 M⁻¹ s⁻¹ | 0.000736 s⁻¹ | Ab128: anti-pro/latent myostatin antibody; CDR sequences in Table 2d (antibody) heavy: EVQLVESGGGLVQPGGSLRLSCTASGFTLSSYSMDWVRQAPGKGLEWVSYITGSGDTTYYADSVKGRFTISRDNAKNTLYLQMNSLRAEDTAVYYCARGFGWISGWAEDYFDYWGQGTLVTVSSASTKGPSVFPLAPCSRSTSESTAALGCLVKDYFPEPVTVSWNSGALTSGVHTFPAVLQSSGLYSLSSVVTVPSSSLGTKTYTCNVDHKPSNTKVDKRV[human IgG4 Fc with S228P (EU numbers) left out] light: DIQMTQSPSSLSASVGDRVTITCQASQSVYSYLNWYQQKPGKAPKLLIYGASRLEGGVPSRFSGSGSGTDFTFTISSLQPEDIATYYCQQHSTDQRTFGGGTKVEIKRTVAAPSVFIFPPSDEQLKSGTASVVCLLNNFYPREAKVQWKVDNALQSGNSQESVTEQDSKDSTYSLSSTLTLSKADYEKHKVYACEVTHQGLSSPVTKSFNRGEC |  |
| 3.16e+06 M⁻¹ s⁻¹ | 0.000318 s⁻¹ | 3.24e+06 M⁻¹ s⁻¹ | 0.000608 s⁻¹ | 3.45e+06 M⁻¹ s⁻¹ | 0.000365 s⁻¹ | Ab121: anti-pro/latent myostatin antibody; CDR sequences in Table 2d (antibody) heavy: QVTLRESGPALVKPTQTLTLTCTVSGFSFSTSGMVVNWIRQPPGKALEWLAMIDWDADNIVYNSALKSRLTISKDTSKNQVVLTMTNMDPVDTATYYCAKDTGSGWFDAFDIWGQGTMVTVSSASTKGPSVFPLAPCSRSTSESTAALGCLVKDYFPEPVTVSWNSGALTSGVHTFPAVLQSSGLYSLSSVVTVPSSSLGTKTYTCNVDHKPSNTKVDKRV[human IgG4 Fc with S228P (EU numbers) left out] light: DIVMTQSPDSLAVSLGERATINCKSSQSVLYSSTNQNFLAWYQQKPGQPPKLLIYQASTLQNGVPDRFSGSGSGTDFTLTISSLQAEDVAVYYCQQYLTTPYTFGGGTKVEIKRTVAAPSVFIFPPSDEQLKSGTASVVCLLNNFYPREAKVQWKVDNALQSGNSQESVTEQDSKDSTYSLSSTLTLSKADYEKHKVYACEVTHQGLSSPVTKSFNRGEC | to a greater extent than Ab2 |
| 813000 M⁻¹ s⁻¹ | 0.000213 s⁻¹ | 815000 M⁻¹ s⁻¹ | 0.000265 s⁻¹ | 821000 M⁻¹ s⁻¹ | 0.000269 s⁻¹ | Ab127: anti-pro/latent myostatin antibody; CDR sequences in Table 2d (antibody) heavy: EVQLVESGGGLVQPGGSLRLSCTASGFTFGSYPMDWVRQAPGKGLEWVSYISGRGDVTYYADSVKGRFTISRDNAKNTLYLQMNSLRAEDTAVYYCAKVQSPSELLWFGELLPVDYWGQGTLVTVSSASTKGPSVFPLAPCSRSTSESTAALGCLVKDYFPEPVTVSWNSGALTSGVHTFPAVLQSSGLYSLSSVVTVPSSSLGTKTYTCNVDHKPSNTKVDKRV[human IgG4 Fc with S228P (EU numbers) left out] light: DIQMTQSPSSLSASVGDRVTITCQASQVIKTWLNWYQQKPGKAPKLLIYDASNLQRGVPSRFSGSGSGTDFTFTISSLQPEDIATYYCQQSASTPITFGGGTKVEIKRTVAAPSVFIFPPSDEQLKSGTASVVCLLNNFYPREAKVQWKVDNALQSGNSQESVTEQDSKDSTYSLSSTLTLSKADYEKHKVYACEVTHQGLSSPVTKSFNRGEC |  |
